# Laboratory results from paper PMC12040169 (PLOS Biology, 2025).
# This is one part of the list.
# Tested on: T1, C. trachomatis L2/434/Bu expressing GFP (CTL2-GFP)
# T1 construct: L2/434/Bu GFP intracellular growth in HeLa cells
# Set-up: species or system HeLa; C. trachomatis total inclusion area by high-content imaging, normalised to DMSO
# Settings: total inclusion area; 28.5 h, 10 µM; inhibitor
# Method in brief: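 High-content imaging followed the bulk GFP/resorufin measurement: fixed, Hoechst-stained cells were scored for GFP inclusions and host nuclei per well. Total inclusion area and count served as growth proxies, nuclei number as the viability proxy. MIC calculation matched the bulk assay.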
row,Compound,% of control remaining
1,O=C(c1cc2c([nH]1)CCCC2)N1CCC(CCN2CCOCC2)CC1 [CBK281869],115.439
2,O=S1(=O)CCCN1c1ccc2[nH]ncc2c1 [CBK010263],112.389
3,CCOc1cccc(CNc2ccc(O)cc2)c1OCc1ccccc1Cl [CBK074473],88.0086
4,COc1cc(NC(=O)CS(=O)(=O)c2ccccc2)c(OC)cc1Cl [CBK269471],73.6939
5,O=C(Nc1ccc(Cl)cc1)NC1(C(=O)NCc2ccncc2)CCCCC1 [CBK174259],88.4974
6,Cc1cccc(OCC2CCCN(C(=O)C3(Cn4cccn4)CC3)C2)c1 (centres unmarked) [CBK306578],74.2062
7,Cc1cc(C(=O)CSc2nncs2)c(C)n1C(C)c1ccccc1 (centres unmarked) [CBK297934],79.7355
8,O=C(CCC(=O)N1CCC2(CC1)CC(=O)c1ccccc1O2)NCC1CCCO1 (centres unmarked) [CBK156525],94.2018
9,Cc1ccnc(SCc2c(Cl)cccc2[N+](=O)[O-])n1 [CBK269632],64.1712
10,Cc1oc(C(=O)O)cc1CSC(C)C(=O)O (centres unmarked) [CBK263556],104.786
11,O=C(CN1CCC(C(=O)c2ccc(F)cc2)CC1)c1ccsc1 [CBK149137],69.4921
12,O=CN1CCc2c([nH]c3ccccc23)C12CCCN(CCOc1ccccc1)C2 (centres unmarked) [CBK039412],83.2383
13,CC(C)(C)OC(=O)NCc1ccc(-c2cc(Nc3cccc(Cl)c3)ncn2)cc1 [CBK037842],74.328
14,CCCCC12CN3CC(C)(CN(C1)C31C(=O)N(C)c3ccc(C)cc31)C2=O (centres unmarked) [CBK267286],98.2429
15,O=C(O)Cn1nnc(-c2ccc(OCc3ccccc3)cc2)n1 [CBK269755],45.2549
16,COc1ccc(CC(=O)Nc2ccc(Nc3ccccc3)cc2)cc1 [CBK263884],74.1858
17,COc1cccc(C(=O)N2CCC(Cc3ccc(-c4cccc(C)c4)cc3)(C(N)=O)CC2)c1 [CBK285779],41.5663
18,CN(C(=O)N1CCC(C(=O)NC(c2ccccc2)c2ccco2)CC1)c1ccccc1 (centres unmarked) [CBK059877],109.415
19,CCOC(=O)CCNC(=O)C1(c2ccc(OC)cc2)CC1 [CBK161490],90.2531
20,Cn1c(=O)[nH]c(=O)c2c1nc(N1CCN(Cc3ccccc3)CC1)n2CCCc1ccccc1 [CBK269529],89.1942
21,Cc1noc(C2COCCN2C(=O)c2cc(Cl)cn2C)n1 (centres unmarked) [CBK305120],33.1382
22,O=C(Nc1ccc(S(=O)(=O)N2CCCCC2)cc1)c1nc(SCc2ccccc2)ncc1Cl [CBK268901],82.2266
23,O=C1CCCC[C@@H]2[C@@H](N1)[C@H](c1ccccc1)CN2Cc1ccc2ccccc2n1 [CBK286281],102.841
24,CC(=O)Nc1cccc(NC(=O)c2cnc3sc(C)cn3c2=O)c1 [CBK287715],84.0468
25,O=C(c1ccc2[nH]nnc2c1)N1CCc2ccccc2C1 [CBK200332],65.6866
26,O=S(=O)(NC1CCCCC1n1cc(-c2ccccc2)nn1)c1ccc(Cl)cc1 (centres unmarked) [CBK266391],145.076
27,CCc1nc(-c2ccc(N(C)C)nc2)n(C)n1 [CBK306897],73.2237

row,Compound,% of control remaining
1,COc1cccc(C(=O)Nc2ccccc2C(=O)Nc2cccc(C(=O)O)c2C)c1 [CBK265768],73.5432
2,CCOc1ccc(-c2cc(C(=O)N3CCN(C)CC3)c3ccccc3n2)cc1 [CBK066900],76.9716
3,Cc1cc2nc(C(=O)NCCCn3ccnc3C(C)C)cc(C)n2n1 [CBK307022],75.383
4,C=CCn1c(S)nnc1COc1cccc2ccccc12 [CBK267292],121.14
5,O=C(CN1CCCCC1Cn1cccn1)NCc1ccccn1 (centres unmarked) [CBK306146],30.9423
6,Cc1cccc(N2CCN(CC(=O)Nc3ccc(S(N)(=O)=O)cc3)CC2)c1C [CBK269369],97.6334
7,COc1ccccc1-c1cnc2[nH]c(=O)n(C3CCCCC3)c2n1 [CBK064203],120.644
8,Cc1c(CN(C)C(=O)c2ccc(COc3ccc(Cl)cc3)cc2)cnn1C [CBK265756],51.9547
9,CCn1nc(C(=O)Nc2ccccc2-c2ccc(OC)cc2)c2ccccc2c1=O [CBK285864],113.196
10,CCC(C)(C)c1ccc(S(=O)(=O)NCc2ccc(C(F)(F)F)cc2)cc1 [CBK044820],69.2536
11,Cc1nn(C)c(C)c1C(C)NC(=O)C1CC2C=CC1C21CC1 (centres unmarked) [CBK283076],97.157
12,O=C(O)c1[nH]n(-c2ccc(Cl)cc2)c(=O)c1CCO [CBK287079],119.101
13,Cc1cc(COc2nccnc2N2CCN(CCCn3c(=O)[nH]c4ccccc43)CC2)no1 [CBK084199],93.6178
14,Cc1nc2cccnc2n1C1CCN(C(=O)NC2CCCCC2)CC1 [CBK283637],76.453
15,Cc1noc(C)c1S(=O)(=O)Nc1cccc(C(=O)O)c1 [CBK038902],120.234
16,CC(=O)c1c(C)nn(CCC(=O)Nc2ccc(Cl)c(Cl)c2)c1C [CBK269829],74.1927
17,NC12CC(=O)CC(CC(c3ccccc3)C1)C2 (centres unmarked) [CBK010323C],54.7934
18,CC(=O)OC(C(=O)O)C(OC(C)=O)C(=O)O (centres unmarked) [CBK261063],98.5728
19,Cc1c(-c2noc(-c3ccc4c(c3)OCO4)n2)nnn1Cc1ccccc1 [CBK288609],100.053
20,CC(Oc1ccc(/C=C/[N+](=O)[O-])cc1)C(=O)O (centres unmarked) [CBK264042],111.291
21,CC(C)N(CCOc1nccnc1-c1ccc(OC(F)(F)F)cc1)C(C)C [CBK106848],103.211
22,COC(=O)c1ccccc1NC(=O)CSc1nnc(-c2ccncc2)[nH]1 [CBK266324],92.6983
23,OCCN1CC2(CCN(CCN3CCOCC3)CC2)c2ccccc21 [CBK126766],57.3197
24,COc1ccc(C(=O)NC(=S)Nc2ccccc2N2CCN(C)CC2)cc1[N+](=O)[O-] [CBK268292C],83.9978
25,O=C(O)CCc1nc(-c2ccncc2)no1 [CBK288558],90.6398
26,c1nc(OCCN2CCOCC2)cc(N2CCCNCC2)n1 [CBK085466],119.356
27,O=[N+]([O-])c1ccc(N2CCN(S(=O)(=O)c3ccccc3)CC2)cc1Sc1cccc2cccnc12 [CBK263821],87.4176

row,Compound,% of control remaining
1,Cc1cc(S(=O)(=O)Nc2n[nH]cc2C#N)c(C)cc1Cl [CBK044943],83.3532
2,OCCCNc1nccnc1-c1ccccc1Cl [CBK038092],121.097
3,CNc1ccc(C(O)(C(F)(F)F)C(F)(F)F)cc1C(O)(C(F)(F)F)C(F)(F)F [CBK268070],98.2967
4,COC(=O)C(CC(C)C)Nc1nc(OC)cc(OC)n1 (centres unmarked) [CBK058765],89.694
5,COc1ccc(C2=CC(c3ccc(Cl)cc3)N3N=CNC3=N2)cc1OC (centres unmarked) [CBK287966],99.3669
6,Cc1nn2cc(-c3n[nH]cc3[N+](=O)[O-])cnc2c1C(=O)O [CBK268883],67.7127
7,O=C1CCCN1CC(=O)N1CCCC1c1nc2ccccc2[nH]1 (centres unmarked) [CBK282315],95.9391
8,CC1CCN(Cc2ccc(-c3nnn(CC(=O)NCc4ccc(O)cc4)n3)cc2)CC1 [CBK144156C],95.794
9,CC1=NNC(=O)C1C(c1ccc(Cl)cc1Cl)C1C(=O)NN=C1C (centres unmarked) [CBK067756],93.3765
10,O=S(=O)(Nc1nc(-c2c(F)cccc2Cl)cs1)c1cc(Cl)c(Cl)s1 [CBK200025],105.646
11,O=C(CCNS(=O)(=O)c1ccccc1)N1CCC(Cc2ccccc2)CC1 [CBK270091],95.7369
12,COc1ccc(N2CCN(C(=O)c3ccc([N+](=O)[O-])o3)CC2)cc1 [CBK091410],35.1973
13,COc1ccc(C2c3cc(OC)c(OC)cc3CC(=O)N2c2cccc(C(=O)O)c2)cc1OC (centres unmarked) [CBK296118],109.672
14,Cc1cc(COc2cc(NC(C)C)ncn2)no1 [CBK115887],119.942
15,Cc1ccc(-n2c(SCC(=O)NCc3ccccc3)nnc2-c2ccccc2O)c(C)c1 [CBK268892],108.163
16,O=C(O)c1sccc1S(=O)(=O)NCc1ccc(COCC(F)(F)F)cc1 [CBK296706],85.4828
17,Cc1nc2c(C(=O)NC3CCOCC3)cnn2c(C)c1Cc1cccc(Br)c1 [CBK165011],80.9232
18,O=S1(=O)CCN(Cc2cn(-c3ccccc3)nn2)CC1 [CBK113103],92.5514
19,Cc1cc2c(cc3c(=O)n(CC(=O)NCC4CC4)nc(C)n32)s1 [CBK284097],94.2116
20,O=C(N[C@H]1CCN2C(=O)c3cc(-c4ccsc4)ccc3NC(=O)[C@@H]2C1)c1cccs1 [CBK289563],83.2461
21,CCN(CC)C(=O)CCn1c(-c2cccnc2)cc2cccnc21 [CBK282160],93.4099
22,COc1cccc(OCc2ccc(Cn3ccn(C(=O)CCCC(C)C)c3=O)cc2)c1 [CBK106638],78.3099
23,COc1ccc(N2CCN(c3nc(OC)nc(OC)n3)CC2)cc1 [CBK264245],138.319
24,COc1ccccc1-c1cn2ccnc2c(NCc2ccccc2)n1 [CBK037372],108.692
25,O=C(CSc1nc(-c2ccc(F)cc2)cc(C(F)(F)F)n1)NCCN1CCOCC1 [CBK266121],141.192
26,O=C(CN1C(=O)c2ccccc2S1(=O)=O)Nc1ccccc1-c1ccccc1 [CBK266390],128.235
